# Assay results: publication PMC4346921, “Identification of the Specific Interactors of the Human Lariat RNA Debranching Enzyme 1 Protein” (International Journal of Molecular Sciences, 2015)
# No constants are given. Whether binding was seen depends on the method and setting. In cells and extracts the contact can be indirect. Some results given as binding are weak or reduced against the parent protein; the word gives no strength. Tags and fused reporters may be left off the sequences shown.
# T1: GST-yeast Dbr1 (GST-yDbr1) (yeast) (UniProt P24309)
# T1 sequence: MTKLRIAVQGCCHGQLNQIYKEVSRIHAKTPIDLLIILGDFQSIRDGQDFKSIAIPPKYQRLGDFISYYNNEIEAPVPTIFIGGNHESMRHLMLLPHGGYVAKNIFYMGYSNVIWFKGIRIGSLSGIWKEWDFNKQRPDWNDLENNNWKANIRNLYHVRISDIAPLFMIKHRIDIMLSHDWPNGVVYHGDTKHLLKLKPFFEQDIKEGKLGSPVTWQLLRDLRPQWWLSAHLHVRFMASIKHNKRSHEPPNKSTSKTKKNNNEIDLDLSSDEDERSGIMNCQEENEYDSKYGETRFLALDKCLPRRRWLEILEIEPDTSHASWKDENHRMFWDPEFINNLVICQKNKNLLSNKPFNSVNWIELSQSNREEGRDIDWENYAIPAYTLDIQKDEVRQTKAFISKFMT
# T2: GST-hDbr1 (human, UniProt Q9UK59-1 1-544)
# T2 construct: human Dbr1, cDNA NM_016216 inserted into BamHI and XhoI sites of GEX-6P-1; also called GST-hDbr1 protein; recombinant Dbr1 protein fused to GST; source: E. coli BL21 (DE3) CodonPlus-RIPL, purified (Glutathione Sepharose)
# T2 sequence (looked up): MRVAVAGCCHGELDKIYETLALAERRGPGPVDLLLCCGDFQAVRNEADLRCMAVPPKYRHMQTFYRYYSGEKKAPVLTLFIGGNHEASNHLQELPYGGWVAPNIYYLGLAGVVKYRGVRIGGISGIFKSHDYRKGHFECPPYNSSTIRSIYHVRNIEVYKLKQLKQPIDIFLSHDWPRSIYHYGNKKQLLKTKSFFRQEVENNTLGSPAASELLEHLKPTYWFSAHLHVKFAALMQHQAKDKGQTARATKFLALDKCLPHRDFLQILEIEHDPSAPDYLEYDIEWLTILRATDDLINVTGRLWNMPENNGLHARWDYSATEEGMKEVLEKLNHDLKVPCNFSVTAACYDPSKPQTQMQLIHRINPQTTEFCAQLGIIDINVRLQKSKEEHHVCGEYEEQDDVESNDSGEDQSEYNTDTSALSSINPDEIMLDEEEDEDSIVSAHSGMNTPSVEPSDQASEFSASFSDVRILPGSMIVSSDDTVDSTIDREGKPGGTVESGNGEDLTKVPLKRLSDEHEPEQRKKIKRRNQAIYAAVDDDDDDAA
# T3: T7-His-hDrn1 (human) (UniProt Q69YN2)
# T3 sequence: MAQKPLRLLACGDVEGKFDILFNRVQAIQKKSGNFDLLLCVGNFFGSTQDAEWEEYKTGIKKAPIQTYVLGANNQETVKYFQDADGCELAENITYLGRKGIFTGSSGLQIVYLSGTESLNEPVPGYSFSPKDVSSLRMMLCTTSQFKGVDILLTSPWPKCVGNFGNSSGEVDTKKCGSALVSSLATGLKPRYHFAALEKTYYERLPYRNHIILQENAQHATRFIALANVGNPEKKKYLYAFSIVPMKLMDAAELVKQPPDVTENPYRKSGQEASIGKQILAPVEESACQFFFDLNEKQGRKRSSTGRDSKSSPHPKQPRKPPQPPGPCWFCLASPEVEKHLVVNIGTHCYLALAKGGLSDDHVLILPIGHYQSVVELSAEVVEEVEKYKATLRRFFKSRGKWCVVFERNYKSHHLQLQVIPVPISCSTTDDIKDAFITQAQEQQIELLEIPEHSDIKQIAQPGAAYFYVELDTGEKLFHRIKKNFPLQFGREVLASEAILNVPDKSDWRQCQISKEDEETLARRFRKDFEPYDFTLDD
# Tests used:
# [1] = target: T1, GST-yeast Dbr1 (GST-yDbr1) (yeast); assay: pull-down; 5 μg GST or GST fusion protein immobilised on glutathione beads; [35S]methionine-labelled in vitro translated protein added in 50 mM Tris-HCl pH 7.4, 200 mM NaCl, 2 mM EDTA, 0.1% NP-40, 4 °C, 1 h; five washes; SDS-PAGE and fluorography; only the target purified
# GST-hDbr1 = target: T2, GST-hDbr1; assay: as above
# T7-His-hDrn1 (human) = target: T3, T7-His-hDrn1 (human); assay: pull-down; 2 μg T7-His-hDrn1 immobilised by anti-T7 tag antibody on magnetic protein A beads; [35S]methionine-labelled in vitro translated myc-PK fusions added in 50 mM Tris-HCl pH 7.4, 200 mM NaCl, 2 mM EDTA, 0.1% NP-40, 4 °C, 1 h; five washes; SDS-PAGE and fluorography; only the target purified
binding [1],binding (GST-hDbr1),binding (T7-His-hDrn1 (human)),Binder
no binding,binds,–,"myc-tagged hDrn1, in vitro translated (protein, UniProt Q69YN2-1 1-538) MAQKPLRLLACGDVEGKFDILFNRVQAIQKKSGNFDLLLCVGNFFGSTQDAEWEEYKTGIKKAPIQTYVLGANNQETVKYFQDADGCELAENITYLGRKGIFTGSSGLQIVYLSGTESLNEPVPGYSFSPKDVSSLRMMLCTTSQFKGVDILLTSPWPKCVGNFGNSSGEVDTKKCGSALVSSLATGLKPRYHFAALEKTYYERLPYRNHIILQENAQHATRFIALANVGNPEKKKYLYAFSIVPMKLMDAAELVKQPPDVTENPYRKSGQEASIGKQILAPVEESACQFFFDLNEKQGRKRSSTGRDSKSSPHPKQPRKPPQPPGPCWFCLASPEVEKHLVVNIGTHCYLALAKGGLSDDHVLILPIGHYQSVVELSAEVVEEVEKYKATLRRFFKSRGKWCVVFERNYKSHHLQLQVIPVPISCSTTDDIKDAFITQAQEQQIELLEIPEHSDIKQIAQPGAAYFYVELDTGEKLFHRIKKNFPLQFGREVLASEAILNVPDKSDWRQCQISKEDEETLARRFRKDFEPYDFTLDD"
–,binds,–,"myc-PK hDrn1 (aa. 1–538) (protein, UniProt Q69YN2-1 1-538) MAQKPLRLLACGDVEGKFDILFNRVQAIQKKSGNFDLLLCVGNFFGSTQDAEWEEYKTGIKKAPIQTYVLGANNQETVKYFQDADGCELAENITYLGRKGIFTGSSGLQIVYLSGTESLNEPVPGYSFSPKDVSSLRMMLCTTSQFKGVDILLTSPWPKCVGNFGNSSGEVDTKKCGSALVSSLATGLKPRYHFAALEKTYYERLPYRNHIILQENAQHATRFIALANVGNPEKKKYLYAFSIVPMKLMDAAELVKQPPDVTENPYRKSGQEASIGKQILAPVEESACQFFFDLNEKQGRKRSSTGRDSKSSPHPKQPRKPPQPPGPCWFCLASPEVEKHLVVNIGTHCYLALAKGGLSDDHVLILPIGHYQSVVELSAEVVEEVEKYKATLRRFFKSRGKWCVVFERNYKSHHLQLQVIPVPISCSTTDDIKDAFITQAQEQQIELLEIPEHSDIKQIAQPGAAYFYVELDTGEKLFHRIKKNFPLQFGREVLASEAILNVPDKSDWRQCQISKEDEETLARRFRKDFEPYDFTLDD"
–,binds,–,"Flag-tagged Xab2, in vitro translated (protein, UniProt Q9HCS7 1-855) MVVMARLSRPERPDLVFEEEDLPYEEEIMRNQFSVKCWLRYIEFKQGAPKPRLNQLYERALKLLPCSYKLWYRYLKARRAQVKHRCVTDPAYEDVNNCHERAFVFMHKMPRLWLDYCQFLMDQGRVTHTRRTFDRALRALPITQHSRIWPLYLRFLRSHPLPETAVRGYRRFLKLSPESAEEYIEYLKSSDRLDEAAQRLATVVNDERFVSKAGKSNYQLWHELCDLISQNPDKVQSLNVDAIIRGGLTRFTDQLGKLWCSLADYYIRSGHFEKARDVYEEAIRTVMTVRDFTQVFDSYAQFEESMIAAKMETASELGREEEDDVDLELRLARFEQLISRRPLLLNSVLLRQNPHHVHEWHKRVALHQGRPREIINTYTEAVQTVDPFKATGKPHTLWVAFAKFYEDNGQLDDARVILEKATKVNFKQVDDLASVWCQCGELELRHENYDEALRLLRKATALPARRAEYFDGSEPVQNRVYKSLKVWSMLADLEESLGTFQSTKAVYDRILDLRIATPQIVINYAMFLEEHKYFEESFKAYERGISLFKWPNVSDIWSTYLTKFIARYGGRKLERARDLFEQALDGCPPKYAKTLYLLYAQLEEEWGLARHAMAVYERATRAVEPAQQYDMFNIYIKRAAEIYGVTHTRGIYQKAIEVLSDEHAREMCLRFADMECKLGEIDRARAIYSFCSQICDPRTTGAFWQTWKDFEVRHGNEDTIKEMLRIRRSVQATYNTQVNFMASQMLKVSGSATGTVSDLAPGQSGMDDMKLLEQRAEQLAAEAERDQPLRAQSKILFVRSDASREELAELAQQVNPEEIQLGEDEDEDEMDLEPNEVRLEQQSVPAAVFGSLKED"
–,–,binds,"myc-PK hDbr1 (aa. 241–544) (domain or fragment, UniProt Q9UK59-1 241-544) DKGQTARATKFLALDKCLPHRDFLQILEIEHDPSAPDYLEYDIEWLTILRATDDLINVTGRLWNMPENNGLHARWDYSATEEGMKEVLEKLNHDLKVPCNFSVTAACYDPSKPQTQMQLIHRINPQTTEFCAQLGIIDINVRLQKSKEEHHVCGEYEEQDDVESNDSGEDQSEYNTDTSALSSINPDEIMLDEEEDEDSIVSAHSGMNTPSVEPSDQASEFSASFSDVRILPGSMIVSSDDTVDSTIDREGKPGGTVESGNGEDLTKVPLKRLSDEHEPEQRKKIKRRNQAIYAAVDDDDDDAA"
–,–,binds,"myc-PK hDbr1 (aa. 1–544) (enzyme, UniProt Q9UK59-1 1-544) MRVAVAGCCHGELDKIYETLALAERRGPGPVDLLLCCGDFQAVRNEADLRCMAVPPKYRHMQTFYRYYSGEKKAPVLTLFIGGNHEASNHLQELPYGGWVAPNIYYLGLAGVVKYRGVRIGGISGIFKSHDYRKGHFECPPYNSSTIRSIYHVRNIEVYKLKQLKQPIDIFLSHDWPRSIYHYGNKKQLLKTKSFFRQEVENNTLGSPAASELLEHLKPTYWFSAHLHVKFAALMQHQAKDKGQTARATKFLALDKCLPHRDFLQILEIEHDPSAPDYLEYDIEWLTILRATDDLINVTGRLWNMPENNGLHARWDYSATEEGMKEVLEKLNHDLKVPCNFSVTAACYDPSKPQTQMQLIHRINPQTTEFCAQLGIIDINVRLQKSKEEHHVCGEYEEQDDVESNDSGEDQSEYNTDTSALSSINPDEIMLDEEEDEDSIVSAHSGMNTPSVEPSDQASEFSASFSDVRILPGSMIVSSDDTVDSTIDREGKPGGTVESGNGEDLTKVPLKRLSDEHEPEQRKKIKRRNQAIYAAVDDDDDDAA"
binds,no binding,–,"myc-tagged yDrn1, in vitro translated (protein, UniProt P53255 1-507) MTNAKILVAHISESDADEAIRKIKKVNEKSGPFDLIIIFSNSYDENFELNTDGLPQLILLSCDKANNSKSKKINENVTLLHNMGTYKLANGITLSYFIYPDDTLQGEKKSILDEFGKSEDQVDILLTKEWGLSISERCGRLSGSEVVDELAKKLQARYHFAFSDEINFYELEPFQWERERLSRFLNIPKYGSGKKWAYAFNMPIGDNELKDEPEPPNLIANPYNSVVTNSNKRPLETETENSFDGDKQVLANREKNENKKIRTILPSSCHFCFSNPNLEDHMIISIGKLVYLTTAKGPLSVPKGDMDISGHCLIIPIEHIPKLDPSKNAELTQSILAYEASLVKMNYIKFDMCTIVFEIQSERSIHFHKQVIPVPKYLVLKFCSALDRQVHFNNEKFTRNAKLEFQCYDSHSSKQYVDVINNQSNNYLQFTVYETPEADPKIYLATFNASETIDLQFGRRVLAFLLNLPRRVKWNSSTCLQTKQQETIEAEKFQKAYRTYDISLTEN"
–,–,no binding,"myc-PK hDbr1 (aa. 1–240) (domain or fragment, UniProt Q9UK59-1 1-240) MRVAVAGCCHGELDKIYETLALAERRGPGPVDLLLCCGDFQAVRNEADLRCMAVPPKYRHMQTFYRYYSGEKKAPVLTLFIGGNHEASNHLQELPYGGWVAPNIYYLGLAGVVKYRGVRIGGISGIFKSHDYRKGHFECPPYNSSTIRSIYHVRNIEVYKLKQLKQPIDIFLSHDWPRSIYHYGNKKQLLKTKSFFRQEVENNTLGSPAASELLEHLKPTYWFSAHLHVKFAALMQHQAK"
–,binds,–,"myc-PK hDrn1 (aa. 1–268) (domain or fragment, UniProt Q69YN2-1 1-268) MAQKPLRLLACGDVEGKFDILFNRVQAIQKKSGNFDLLLCVGNFFGSTQDAEWEEYKTGIKKAPIQTYVLGANNQETVKYFQDADGCELAENITYLGRKGIFTGSSGLQIVYLSGTESLNEPVPGYSFSPKDVSSLRMMLCTTSQFKGVDILLTSPWPKCVGNFGNSSGEVDTKKCGSALVSSLATGLKPRYHFAALEKTYYERLPYRNHIILQENAQHATRFIALANVGNPEKKKYLYAFSIVPMKLMDAAELVKQPPDVTENPYRK"
